The whole screen tested about 380,000 compounds, of which about 4,000 (1.1%) were called active. The inconclusive results got no clear call from the source; some entries with a clear call stand among them for comparison. Calls follow the shape of the dose curve; as a rule, active = well fitted activation curve with a large enough effect; inconclusive = small, poorly fitted or top-dose-only effect; inactive = no such curve, though single readings can be large or run the other way. Where the call is inconclusive, the potency comes from a doubtful curve fit.
assay: qHTS Assay to Identify Small Molecule Activators of BRCA1 Expression; settings: MCF7-BRCA1-FFLuc reporter, luminescence, 48 h; activation: at 46.1 µM (top of the series), scaled: vehicle 0%, 10 µM genistein 100% unless noted; also: nearly all actives have a fitted effect of over 80% in size
Outline: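 Luminescence from a BRCA1-driven firefly luciferase in MCF7 cells was the read-out, taken 15 min after substrate addition following 48 h compound exposure at 37 °C. Data were normalized to a 10 microM genistein control and DMSO vehicle.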
Potency is read from the fitted curve at half-maximal effect; tags tell the direction and shape of the fitted curve.

Compound	activation	Potency
COc1ccc(Nc2c3c(nc4ccccc24)CCC3)cc1	inactive: -74.9%	
Cc1cc(C(=O)COC(=O)c2ccc3c(c2)OCO3)c(C)n1Cc1cccs1		active: 5.01 µM
Nc1ccccc1SCC(=O)Nc1ccc2c(c1)OCCO2		inconclusive: 10 µM [activator, partial curve, poor fit]
CN(C(=O)c1ccc(NC(=O)C2CCN(C(=O)OC(C)(C)C)CC2)cc1)C1CCC1	inactive: -8.3%	
c1ccc(-c2ccc(-c3ccccc3)[nH]2)cc1		inconclusive: 31.6 µM [activator, single point]
Brc1ccc(-c2csc(N3CCOCC3)n2)cc1		active: 11.2 µM
CC(=O)Nc1ccc(NC(=O)c2cccc(S(=O)(=O)N3CCCCCC3)c2)cc1	inactive: -23.1%	
Cc1cc2ncn(C(=O)N3CCCCC3)c2cc1C		inconclusive: 17.8 µM [activator, partial curve, poor fit]
CC(=O)c1cccc(NC(=O)c2cc(-c3ccc4c(c3)OCCO4)on2)c1		inconclusive: 2.51 µM [activator, partial curve, poor fit]
Cc1ccc2nc(-c3ccc(NC(=O)COCC(=O)O)cc3)sc2c1		inconclusive: 11.2 µM [activator, partial curve, poor fit]
COc1ccc(-c2csc(NC(=O)c3c(OC)cccc3OC)n2)cc1	inactive: -5.75%	
O=C(N/N=C/C=C\c1ccco1)c1cccs1		active: 7.08 µM
CCCn1cnc2cc(NC(=O)c3cccs3)ccc21		inconclusive: 17.8 µM [activator, single point]
COc1ccc(C(=O)NC(C(=O)NCC2CCCO2)C(C)C)cc1 (stereo unspecified)	inactive: 2.07%	
Cc1cccc(C)c1NC(=O)c1cccc(COc2cc(Cl)ccc2Cl)c1		inconclusive: 31.6 µM [activator, single point]
Cc1cc(/C=C2\SC(=S)NC2=O)c(C)n1-c1cccc(O)c1		active: 2.82 µM
CCOC(=O)N/N=C/c1ccccc1F		active: 10 µM
O=C(Nc1ccc(F)c(Cl)c1)N1CCCCCC1		active: 8.91 µM
CCCc1ccc2oc(C(=O)N3CCCC3)c(C)c2c1		inconclusive: 17.8 µM [activator, single point]
COc1ccc(N(C)C(=O)c2cc3c(s2)-c2ccccc2OC3)c(OC)c1	inactive: -12.4%	
CCOC(=O)C1CCN(C(c2cccnc2)c2c(NC(=O)c3ccco3)sc(C)c2C)CC1 (stereo unspecified)	inactive: -68.9%	

Compound	activation	Potency
CCc1ccccc1NC(=O)c1ccc2[nH]c(C)c(C)c2c1		active: 8.91 µM
CC12CCC(C)(O1)C1C(=O)N(c3nccs3)C(=O)C12 (stereo unspecified)	inactive: -1.11%	
O=C(Nc1ccc2nsnc2c1)N1CCCCC1		inconclusive: 35.5 µM [activator, single point]
COc1ccc(CNC(=O)CCNS(=O)(=O)c2ccc(NC(C)=O)cc2)cc1OC	inactive: -12%	
COc1cc(OC)cc(-c2cc3ccc(OC)cc3cn2)c1		inconclusive: 2.51 µM [activator, partial curve, poor fit]
COCCNC(=O)c1ccc(Cl)c(Cl)c1	inactive: 8.89%	
c1ccn(-c2ccc(-c3ccn[nH]3)cc2)c1		active: 5.01 µM
COc1cc(C(=O)Nc2ccccc2SCc2cc(=O)n3nc(C)sc3n2)cc(OC)c1OC	inactive: -13.2%	
Cc1ccc(CN(C(=O)c2ccc([N+](=O)[O-])cc2)c2ccccn2)cc1	inactive: 6.01%	
Cc1ccc(/C=N/N2CCN(c3ccccn3)CC2)o1		active: 10 µM
O=C(O)c1ccccc1OCc1ccccc1Br		inconclusive: 35.5 µM [activator, single point]
Cc1c2cccn2cc[n+]1C	inactive: -2.09%	
CC(=O)c1cc(F)ccc1OCC(=O)Nc1ccc2c(c1)OCO2		active: 1.26 µM
O=C(COc1ccc(Br)cc1Br)NC(=O)NC1CCCC1		active: 11.2 µM
CC(C)Sc1nnc(NC(=O)c2ccc3c(c2)OCO3)s1		active: 2.51 µM
CCCCc1c(O)nc(SCC(=O)N2CCOCC2)n(-c2ccccc2C)c1=O	inactive: -2.32%	
COc1cccc(NC(=O)c2sc3nc(N4CCOCC4)c4c(c3c2N)CCCC4)c1	inactive: -48.3%	
Cc1cccc(N/N=C2/COC(C)(C)CC2=O)c1		active: 7.94 µM
Cc1c(C(=O)N2CCN(C)CC2)oc2ccc(Br)cc12		active: 12.6 µM
Cc1nc(-c2ccc(NC(=O)c3ccc(Br)o3)cc2)cs1		active: 11.2 µM
O=[N+]([O-])c1ccc(CC(Cl)c2ccccn2)cc1 (stereo unspecified)		inconclusive: 17.8 µM [activator, partial curve, poor fit]

Compound	activation	Potency
c1ccc(CCNc2nc(-c3ccccn3)cs2)cc1		inconclusive: 31.6 µM [activator, single point]
COc1ccc(/C=C2\NC(=S)N(CC3CCCO3)C2=O)c(OC)c1 (stereo unspecified)		inconclusive: 35.5 µM [activator, single point]
O=C(Nc1ccc2ccccc2c1)c1cccc(F)c1		inconclusive: 2.51 µM [activator, full curve, poor fit]
O=C(NCCc1ccccn1)c1cc2ccccc2o1		active: 10 µM
O=C(NC(=S)NCCc1ccccn1)c1ccccc1		inconclusive: 31.6 µM [activator, single point]
O=C(CCSc1ccccn1)Nc1ccc(Br)cc1		inconclusive: 11.2 µM [activator, partial curve, poor fit]
COc1ccc(C(=O)N/N=C/C(=O)c2ccccc2)cc1		active: 5.62 µM
CCOc1ccc2nc(NC(=S)N(C)C)sc2c1	inconclusive: 8.85% [activator]	
Cc1cccc(C(=O)NC(=O)Nc2c(C)cc(C)nc2C)c1		active: 3.98 µM
Cc1ccc(CSCC(=O)N2CCOCC2)cc1	inactive: 58.4%	
O=C(Nc1ccccc1)Nc1cccn(Cc2c(F)cccc2Cl)c1=O		inconclusive: 10 µM [activator, partial curve, poor fit]
CCN(CC)CCCN(C(=O)c1ccco1)c1nc(-c2ccc(Cl)cc2)cs1	inactive: 2.55%	
O=C(c1cc(-c2ccc(Cl)cc2)on1)N1CCCCCC1		inconclusive: 2 µM [activator, full curve, poor fit]
Cc1ccc(C(=O)Cc2cc3ccccc3oc2=O)c(C)c1		active: 3.98 µM
CCC(C)c1ccc(O)c(NC(=S)NC(=O)c2cccs2)c1 (stereo unspecified)		inconclusive: 2.51 µM [activator, partial curve, poor fit]
CCNC(=O)CSc1nc(-c2ccc(F)cc2)cs1		inconclusive: 17.8 µM [activator, partial curve, poor fit]
Cc1ccc2oc(-c3ccccc3)nc2c1		inconclusive: 2.51 µM [activator, full curve, poor fit]
O=[N+]([O-])c1ccc(Nc2ccc3ccccc3c2)nc1		inconclusive: 10 µM [activator, partial curve, poor fit]
CCC1CCCCN1C(=O)CCc1nnc(C2CCCCC2)o1 (stereo unspecified)		inconclusive: 22.4 µM [activator, single point]
CC(=O)C(Cc1ccccc1)NC(=O)COC(=O)c1cc(S(=O)(=O)N2CCOCC2)ccc1F (stereo unspecified)	inactive: 12%	
Cc1csc(SCC(=O)Nc2sccc2C#N)n1		inconclusive: 2.24 µM [activator, partial curve, poor fit]

Compound	activation	Potency
Cc1nnsc1C(=O)N1CCCC(C)(C(=O)NS(=O)(=O)C2CC2)C1 (stereo unspecified)	inactive: -15.4%	
COC(=O)C1CCN(C(=O)/C=C/c2ccc3c(c2)OCO3)CC1		inconclusive: 1.58 µM [activator, full curve, poor fit]
O=C1CC(c2ccc(OCCCCCOc3ccc(C4CC(=O)NC4=O)cc3)cc2)C(=O)N1 (stereo unspecified)	inactive: -36.4%	
Fc1ccccc1OCCSc1nnnn1-c1ccccc1		inconclusive: 1 µM [activator, full curve, poor fit]
CC1(C)CC(NC(=O)COc2ccccc2Cl)CC(C)(C)N1		inconclusive: 8.91 µM [activator, partial curve, poor fit]
Cc1cc(C(=O)CSc2nnnn2C)c(C)n1C1CC1		inconclusive: 7.94 µM [activator, partial curve, poor fit]
Nc1cccn2c(-c3ccc(Cl)c(Cl)c3)cnc12		inconclusive: 3.16 µM [activator, partial curve, poor fit]
COC(=O)c1ccc(/C=N/Nc2nc3ccccc3[nH]2)cc1		active: 3.16 µM
Nc1c(C(=O)Nc2cccc(F)c2)nnn1-c1ccc2c(c1)OCCO2	inconclusive: 136% [activator]	
CC(C)N=c1scc(-c2cccs2)n1/N=C/c1ccc(O)c(O)c1O	inactive: -17.3%	
Cc1ccc(Nc2ncnc3ccccc23)cc1		active: 5.62 µM
COc1cccc2[nH]c(C(=O)NCCc3ccccc3)cc12		inconclusive: 17.8 µM [activator, single point]
O=C(CSc1nnc2ccccn12)c1ccccc1		inconclusive: 22.4 µM [activator, single point]
N#CC1=C2SC=C(c3ccc(Br)cc3)N2CCCC1=O		inconclusive: 1.58 µM [activator, full curve, poor fit]
CC(=O)Nc1cccc(-c2ccnc3c2CC(C)(C(=O)Nc2cccc(C(F)(F)F)c2)O3)c1 (stereo unspecified)	inactive: -51.9%	
Cc1ccc(NC(=O)c2ccn(C(=O)Nc3ccccc3)n2)c(C)c1		inconclusive: 35.5 µM [activator, single point]
Fc1ccc2nc(N3CCCC3)sc2c1		inconclusive: 2.82 µM [activator, full curve, poor fit]
CS(=O)(=O)N1N=C(c2ccc(Br)cc2)CC1c1ccc2c(c1)OCO2 (stereo unspecified)		inconclusive: 1.26 µM [activator, full curve, poor fit]

From PubChem BioAssay AID624202 (National Center for Advancing Translational Sciences (NCATS), 2012)
